Data on 43 molecules can be found in the supplement of paper PMC4723716.

± gives the uncertainty stated by the source. Over roughly 9,900 compounds, “viability index relative to DMSO control” has its median near 1; the lowest 2% begin near 0.85. The list shows a part of the results.

In this assay the test system is Plasmodium falciparum NF54 stage V gametocytes. The assay is described as follows: viability index relative to DMSO control (fraction); higher = less gametocyte killing. To be noted: 2.5 µM, library set: Broad Institute DOS, incubation time: 72 h. The method, boiled down: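 P. falciparum NF54 stage V gametocytes (serum-free medium, 0.75% gametocytemia, 1.25% hematocrit) were exposed to compound at 2.5 µM for 72 hr at 37°C under low oxygen, then stained with MitoTracker Red CMXRos and saponin for one to two hours. Red particles of 20–70 µm2 in one field per well were counted, and the viability index is that count scaled to the plate mean of solvent-only wells.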
Consider `N#C[C@@H]1[C@H](c2ccc(C3=CCCCC3)cc2)[C@H](CO)N1S(=O)(=O)c1ccccc1`, for which the viability index was 1.09 ± 0.018.

Turning to `COc1ccc(NC(=O)N2C[C@H]3[C@@H](c4ccccc42)[C@H](CO)N3Cc2ccccn2)cc1`, the viability index was 0.918 ± 0.049.

Turning to `Cc1ccc(S(=O)(=O)N[C@@H]2CC[C@@H](CC(=O)NCc3ccncn3)O[C@@H]2CO)cc1`, the viability index was found to be 0.948 ± 0.11.

Molecule `C[C@H](CO)N1C[C@H](C)[C@@H](CN(C)C(=O)Nc2ccc3c(c2)OCCO3)OCc2cnnn2CCCC1=O` returned a viability index of 1.0445 ± 0.00048.

Molecule `CCS(=O)(=O)Nc1ccc2c(c1)C(=O)N(C)[C@H]1CC[C@H](CC(=O)NCCCN3CCOCC3)O[C@@H]1CO2` came in with a viability index of 1.03 ± 0.07.

On to `O=C(NCC[C@H]1CC[C@H](NC(=O)C2CCOCC2)[C@H](CO)O1)c1cc(Cl)cc(Cl)c1`, for which the viability index was determined as 1.072 ± 0.0018.

`COc1ccc(NC(=O)N(C)C[C@@H]2OCc3cnnn3CCCC(=O)N([C@H](C)CO)C[C@H]2C)c(OC)c1` had a viability index of 1.08 ± 0.063.

`CC[C@@H]1C/C=C\C[C@H](C(C)C)NC(=O)CCC(=O)N1` displayed a viability index of 0.969 ± 0.16.

As for `O=C(C[C@@H]1C[C@H]2c3cc(NS(=O)(=O)c4ccc(F)cc4)ccc3O[C@H]2[C@@H](CO)O1)NCc1cccnc1`, the viability index came to 1.12 ± 0.071.

With `COc1ccc2c3c([C@@H](CO)N(Cc4ccccc4)C[C@]33CN(C3)C(=O)c3ccccc3F)n(C)c2c1`, the viability index was 0.952 ± 0.048.

The molecule `CCS(=O)(=O)N1C[C@@]2(C1)CN([C@@H](CO)c1[nH]c3cc(OC)ccc3c21)S(=O)(=O)c1cccc(OC)c1` returned a viability index of 1.03 ± 0.068.

As for `CO[C@H]1CN(C)C(=O)c2cc(NC(=O)c3ccc4c(c3)OCO4)ccc2OC[C@H](C)N(CCC(F)(F)F)C[C@H]1C`, the viability index was 1.12 ± 0.035.

Take `C[C@@H]1CCCCO[C@@H](CN(C)Cc2ccc3c(c2)OCO3)[C@@H](C)CN([C@H](C)CO)C(=O)c2cc(NS(=O)(=O)c3cn(C)cn3)ccc2O1`: the viability index was found to be 0.968 ± 0.067.

Regarding `COc1ccccc1NC(=O)N1C[C@@H]2N[C@H](C1)[C@@H]2c1ccc(-c2cccc(C#N)c2)cc1`, the viability index stood at 1.06 ± 0.077.

The molecule `O=C(C[C@@H]1CC[C@@H]2[C@H](COC[C@H](O)CN2C(=O)c2cccnc2)O1)NCC1CC1` displayed a viability index of 1.12 ± 0.041.

Take `CN(C)C(=O)c1cccc(-c2ccc3c(c2)[C@H]2[C@H](CCN2Cc2nccs2)[C@@H](CO)N3)c1`: the viability index stood at 1.18 ± 0.023.

Molecule `O=C(NCCc1ccncc1)[C@H]1[C@H](CO)[C@H]2Cn3c(ccc(-c4ccccc4)c3=O)[C@H]2N1C(=O)C1CC1` gave a viability index of 1.034 ± 0.0004.

`COc1cccc(C#Cc2ccc([C@H]3[C@@H](CO)N(C(=O)c4ccccn4)[C@H]3C#N)cc2)c1` yielded a viability index of 0.8087 ± 0.0043.

For `C[C@@H]1CCCCO[C@H](CN(C)CC2CCCCC2)[C@@H](C)CN([C@H](C)CO)C(=O)c2cc(NC(=O)Nc3ccc(C(F)(F)F)cc3)ccc2O1`, the viability index was 1.07 ± 0.029.

`COc1ccc(S(=O)(=O)N(C)C[C@@H]2Oc3ccc(NC(=O)Nc4ccc(C(F)(F)F)cc4)cc3C(=O)N([C@H](C)CO)C[C@@H]2C)cc1` gave a viability index of 1.03 ± 0.039.

The molecule `C[C@H](CO)N1C[C@H](C)[C@H](CN(C)S(=O)(=O)c2cccc(F)c2)Oc2ncc(C#CC3(O)CCCC3)cc2C1=O` had a viability index of 1.04 ± 0.06.

In the case of `C[C@@H]1CN([C@@H](C)CO)C(=O)c2cc(NS(=O)(=O)c3cn(C)cn3)ccc2O[C@H]1CN(C)S(=O)(=O)c1ccc(F)cc1`, the viability index was determined as 1.06 ± 0.038.

For `COCC(=O)Nc1ccc2c(c1)C(=O)N(C)[C@H]1CC[C@@H](CC(=O)N3CCc4ccccc4C3)O[C@@H]1CO2`, the viability index worked out at 0.948 ± 0.036.

The molecule `CCC(=O)N1C[C@H](O)COC[C@H]2O[C@H](CC(=O)NC)CC[C@@H]21` registered a viability index of 1.155 ± 0.0098.

On to `C[C@@H]1CN([C@H](C)CO)C(=O)c2ccccc2-c2ccccc2CO[C@@H]1CN(C)Cc1cccc2c1OCCCO2`, for which the viability index stood at 0.941 ± 0.019.

In turn, `CO[C@H](CN(C)S(=O)(=O)c1cn(C)cn1)[C@@H](C)CN(C(=O)Nc1ccc(C(F)(F)F)cc1)[C@@H](C)CO` yielded a viability index of 1.01 ± 0.036.

On to `O=C(c1ccc(F)cc1)N1CC(=O)N2[C@H](CO)[C@H](c3ccc(C#CCC4CCCC4)cc3)[C@@H]2C1`, for which the viability index stood at 1.03 ± 0.053.

`C[C@@H]1CCCCO[C@@H](CN(C)C(=O)c2ccncc2)[C@@H](C)CN([C@@H](C)CO)C(=O)c2cc(NS(=O)(=O)c3cccs3)ccc2O1` yielded a viability index of 1.04 ± 0.14.

On to `COc1cccc(C(=O)Nc2ccc3c(c2)C(=O)N(C)[C@@H]2CC[C@H](CC(=O)NCc4ccc(F)cc4)O[C@H]2CO3)c1`, for which the viability index came to 1.08 ± 0.15.

`COc1ccc2c3c([C@@H](CO)N(C[C@]33CN(Cc4ccc(Cl)cc4)C3)C(C)=O)n(C)c2c1` displayed a viability index of 0.938 ± 0.026.

As for `CO[C@H]1CC[C@@H]2CCOc3c(C#N)cccc3C(=O)N(C)C[C@H](c3ccccc3)CC(=O)N(C)C[C@@H]1O2`, the viability index is 1.14 ± 0.013.

Regarding `C[C@@H]1CN([C@H](C)CO)C(=O)c2cccc(NC(=O)Nc3ccc4c(c3)OCO4)c2O[C@@H]1CN(C)S(C)(=O)=O`, the viability index was found to be 0.992 ± 0.087.

`CNC(=O)C[C@@H]1CC[C@H]2[C@@H](COc3ccc(NC(=O)c4ccccc4F)cc3C(=O)N2C)O1` gave a viability index of 1.12 ± 0.049.

`C/C=C/c1ccccc1[C@@H]1[C@H](C#N)N(C(=O)c2cccnc2)[C@H]1CO`: the viability index turned out to be 1.14 ± 0.071.

`C[C@@H]1CN([C@H](C)CO)C(=O)c2cc(C3=CCCCC3)cnc2O[C@H]1CN(C)S(=O)(=O)c1cn(C)cn1` had a viability index of 0.979 ± 0.075.

`CN(C)CC(=O)N1[C@H](C#N)[C@H](c2ccccc2-c2ccc(C(=O)N(C)C)cc2)[C@H]1CO` showed a viability index of 1.14 ± 0.12.

For `CC(C)NC(=O)Nc1ccc2c(c1)C(=O)N([C@@H](C)CO)C[C@@H](C)[C@@H](CN(C)C(=O)C1CCCCC1)OCCCC[C@@H](C)O2`, the viability index was determined as 1.09 ± 0.069.

As to `COc1ccc(-c2ccc3n(c2=O)C[C@H]2[C@H](CO)[C@@H](C(=O)N(C)C)[C@@H]3N2Cc2cncnc2)cc1`, the viability index came to 0.989 ± 0.021.

Turning to `COCC(=O)N1C[C@]2(CCN(Cc3ccccc3)CC2)c2c([nH]c3cc(OC)ccc23)[C@@H]1CO`, the viability index stood at 1.05 ± 0.044.

In the case of `CO[C@@H](CN(C)Cc1ccc(-c2ccccn2)cc1)[C@@H](C)CN(C(=O)Nc1ccc(F)cc1)[C@H](C)CO`, the viability index is 1.1 ± 0.037.

Molecule `CCCNC(=O)Nc1ccc2c(c1)OC[C@@H](C)N(Cc1cncnc1)C[C@@H](C)[C@@H](OC)CN(C)C2=O` showed a viability index of 1.03 ± 0.051.

With `O=C(C[C@H]1C[C@H]2c3cc(NC(=O)Nc4ccccc4)ccc3O[C@H]2[C@H](CO)O1)NCc1ccccc1`, the viability index amounted to 0.954 ± 0.12.

In turn, `COc1ccc(S(=O)(=O)Nc2ccc3c(c2)OC[C@@H](C)NC[C@H](C)[C@@H](OC)CN(C)C3=O)cc1` registered a viability index of 1.05 ± 0.093.
